Reference: the supplement of paper PMC8007513
Where a name gives a salt, the structure may show the parent alone. ± gives the standard error. Hit rate of the full screen: of about 1,300 compounds, about 130 (10%) showed an effect of 50% or more. The entries are a selection whose mix differs from that of the whole data set.

Test system: Trichoderma virens ATCC 9645
Experiment: growth yield (OD600) with compound + IPBC relative to untreated control; higher = less growth inhibition
Conditions: compound concentration: 100 uM, IPBC concentration: 200 ng/ml
In short: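 Library compounds (100 μM final), with or without a co-applied biocide (200 ng ml^−1), were added to 100 μl aliquots of Trichoderma virens ATCC 9645 spores at 15,000 spores ml^−1 in potato dextrose broth. Cultures were grown at 30 °C in 96-well plates, and OD600 was measured at 40 h and 72 h. Each growth value is a mean of duplicate screens, expressed relative to the control with neither agent.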

SMILES	growth yield (40 h)	growth yield (72 h)
CNc1ncnc2c1ncn2[C@@H]1O[C@H](CO)[C@@H](O)[C@H]1O [N6-methyladenosine] + CCCCNC(=O)OCC#CI [3-iodo-2-propynyl butylcarbamate (IPBC)]	87.5 ± 1.8%	95.75 ± 0.73%
C[C@@H](O)[C@H]1C(=O)N2C(C(=O)O)=C(SCCNC=N)C[C@H]12 [Imipenem] + CCCCNC(=O)OCC#CI [3-iodo-2-propynyl butylcarbamate (IPBC)]	84.5 ± 1.9%	90.6 ± 1.3%
c1ccc2c(c1)CCCC2C1=NCCN1 (centres undefined) [Tetrahydrozoline hydrochloride] + CCCCNC(=O)OCC#CI [3-iodo-2-propynyl butylcarbamate (IPBC)]	88 ± 3.2%	91 ± 2.9%
O=C1NCCN1c1ncc([N+](=O)[O-])s1 [Niridazole] + CCCCNC(=O)OCC#CI [3-iodo-2-propynyl butylcarbamate (IPBC)]	80.7 ± 2.5%	89.5 ± 2.2%
Nc1ccc(S(=O)(=O)NC(=O)c2ccccc2)cc1 [Sulfabenzamide] + CCCCNC(=O)OCC#CI [3-iodo-2-propynyl butylcarbamate (IPBC)]	102 ± 4.6%	100 ± 4.1%
C=C(CC)C(=O)c1ccc(OCC(=O)O)c(Cl)c1Cl [Ethacrynic acid] + CCCCNC(=O)OCC#CI [3-iodo-2-propynyl butylcarbamate (IPBC)]	75.8 ± 5.6%	80.5 ± 1.7%
CCN(CC)CCCC(C)Nc1ccnc2cc(Cl)ccc12 (centres undefined) [Chloroquine diphosphate] + CCCCNC(=O)OCC#CI [3-iodo-2-propynyl butylcarbamate (IPBC)]	87.7 ± 5.7%	92.1 ± 5.7%
CS(=O)(=O)c1ccc([C@@H](O)[C@@H](CF)NC(=O)C(Cl)Cl)cc1 [Florfenicol] + CCCCNC(=O)OCC#CI [3-iodo-2-propynyl butylcarbamate (IPBC)]	81.8 ± 4.6%	84.7 ± 3.8%
CC(C(=O)O)c1cccc(Oc2ccccc2)c1 (centres undefined) [Fenoprofen calcium salt dihydrate] + CCCCNC(=O)OCC#CI [3-iodo-2-propynyl butylcarbamate (IPBC)]	73.9 ± 12%	84 ± 9.1%
Oc1ccc(C2CNCCc3c2cc(O)c(O)c3Cl)cc1 (centres undefined) [Fenoldopam] + CCCCNC(=O)OCC#CI [3-iodo-2-propynyl butylcarbamate (IPBC)]	83.71 ± 0.48%	88.2 ± 1.8%
CCCc1ncc(C[n+]2ccccc2C)c(N)n1 [Amprolium hydrochloride] + CCCCNC(=O)OCC#CI [3-iodo-2-propynyl butylcarbamate (IPBC)]	89.11 ± 0.16%	94.6 ± 2.5%
CCn1cc(C(=O)O)c(=O)c2cc(F)c(N3CCNCC3)nc21 [Enoxacin] + CCCCNC(=O)OCC#CI [3-iodo-2-propynyl butylcarbamate (IPBC)]	83.9 ± 1.6%	87 ± 1.5%
